{"source": "PubChem BioAssay AID686979", "about": "(National Center for Advancing Translational Sciences (NCATS), 2013)", "note": "Out of some 420,000 compounds screened, about 50,000 (12%) were called active. Inconclusive means that the source gave no clear call. Such entries were picked first, then a sample of the others. Calls come from the whole dose curve; as a rule, active = well fitted inhibition curve with a large enough effect; inconclusive = small, poorly fitted or top-dose-only effect; inactive = flat fitted curve, though single readings scatter. No potency is given beside an inconclusive call; the fits are too rough. % is set by controls: 0 for no effect and ±100 for the full control effect; potency is the fitted concentration of half-maximal effect; tags give direction and shape of the fitted curve."}
{"assay": "qHTS for Inhibitors of human tyrosyl-DNA phosphodiesterase 1 (TDP1): qHTS in cells in presence of CPT; note: nearly all actives have a fitted effect of over 55% in size", "details": "chicken DT40 Tdp1-/-;hTDP1 cells + 20 nM CPT, ATP luminescence, 48 h; activity change, negative = growth inhibition: at 46.2 µM (top of the series)", "outline": "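Chicken DT40 Tdp1-/- cells stably complemented with human TDP1 were seeded at 400 cells/well in medium containing 20 nM camptothecin, exposed to pin-transferred compounds, and grown at 37 °C for at least 48 hr. Viability was read as ATP luminescence.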"}
{"smiles": "CCOc1cc(/C=C\\c2nc(O)c([N+](=O)[O-])c(=O)[nH]2)ccc1OC(C)C", "Potency": "inactive"}
{"smiles": "COCCNc1nc(NCc2cccc(OC)c2OC)c2sccc2n1", "Potency": "inconclusive [inhibitor, single point]"}
{"smiles": "COc1ccc2c(c1)CCc1c(C(=O)NCc3ccc(Cl)cc3)noc1-2", "Potency": "inactive"}
{"smiles": "O=C(Nc1nc(-c2ccc3ccccc3c2)cs1)c1ccc(N2C(=O)CCC2=O)cc1", "Potency": "inconclusive [inhibitor, single point]"}
{"smiles": "COc1cccc(-c2ccc(C#N)c(SCC(=O)NCCc3ccccc3)n2)c1", "Potency": "inactive"}
{"smiles": "Cc1ccc(S(=O)(=O)NC2=NCN(CCOC(=O)c3ccc([N+](=O)[O-])cc3)CN2)cc1", "Potency": "inconclusive [inhibitor, single point]"}
{"smiles": "CC(C)c1ccc(/C=C2\\NC(=O)NC2=O)cc1", "Potency": "inconclusive [inhibitor, partial curve]"}
{"smiles": "N=c1c2c(-c3ccccc3)c(-c3ccccc3)n(Cc3ccccc3)c2ncn1CCCn1ccnc1", "Potency": "active: 16.4 µM"}
{"smiles": "COc1ccc(OC)c(CN2CCN(CCCc3ccccc3)C(CCO)C2)c1", "note": "(stereo unspecified)", "Potency": "inconclusive [inhibitor, single point]"}
{"smiles": "COc1cccc(OC)c1C(=O)N1CCN(Cc2ccc3c(c2)OCO3)CC1", "activity change, negative = growth inhibition": "inconclusive: -33.3% [inhibitor]"}
{"smiles": "Cc1ccc2nc(-c3cccc(N)c3)[nH]c2c1", "Potency": "active: 14.6 µM"}
{"smiles": "CCCOc1ccc(C(=O)CCC(=O)OC(C)C(=O)Nc2ccc(NC(C)=O)cc2)cc1", "note": "(stereo unspecified)", "Potency": "inactive"}
{"smiles": "O=C(O)CCn1c(SCc2cc(=O)n3ccccc3n2)nc2ccsc2c1=O", "Potency": "inactive"}
{"smiles": "CCn1cc(S(=O)(=O)c2cccc(Cl)c2)c(=O)c2cc(F)c(N3CCN(C)CC3)cc21", "Potency": "inconclusive [inhibitor, single point]"}
{"smiles": "N/C(=N\\OC(=O)Nc1ccc(Cl)cc1)c1ncc(C(F)(F)F)cc1Cl", "Potency": "inactive"}
{"smiles": "COc1cccc(N2CCN(C(=O)c3cc(-c4ccc(F)cc4)[nH]c3C)CC2)c1", "Potency": "active: 14.6 µM"}
{"smiles": "O=C(O)/C(=C\\c1ccccc1OC(F)F)Sc1nnc(-c2ccc(F)cc2)o1", "Potency": "active: 20.6 µM"}
{"smiles": "Cc1ccc(CNC(=O)C2CCN(S(=O)(=O)c3cccs3)CC2)o1", "Potency": "inactive"}
{"smiles": "CC(=O)c1cccc(NS(=O)(=O)c2ccc(-c3cnc(C4CC4)o3)cc2)c1", "Potency": "active: 4.11 µM"}
{"smiles": "O=C(Nc1ccc(F)cc1)c1cnc(-c2ccccc2)nc1-c1ccccc1", "activity change, negative = growth inhibition": "inconclusive: -35.5% [inhibitor]"}
{"smiles": "CC(C)Oc1ccc(/C=N/NC(=O)C2CCCN2S(=O)(=O)c2ccc(Cl)cc2)cc1", "note": "(stereo unspecified)", "Potency": "inconclusive [inhibitor, single point]"}
